Results: PubChem BioAssay AID504466 (National Center for Advancing Translational Sciences (NCATS), 2011)
The campaign covered roughly 330,000 compounds. About 4,200 (1.3%) were called active. The shares of active, inactive and inconclusive entries below differ from those in the screen. Calls follow the shape of the dose curve; as a rule, active = well fitted activation curve with a large enough effect; inconclusive = small, poorly fitted or top-dose-only effect; inactive = no such curve, though single readings can be large or run the other way. A potency beside an inconclusive call is a rough fit, not a confirmed value.

Experiment: qHTS screen for small molecules that induce genotoxicity in human embryonic kidney (HEK293T) cells expressing luciferase-tagged ELG1; also: nearly all actives have a fitted effect of over 60% in size; as to activity change, positive = activation: % of control where 0% means no effect
Conditions: HEK293T ELG1-luciferase reporter, luminescence, 16 h; series mostly up to 46 µM
Outline: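 Screening used a luciferase reporter fused to human ELG1 in HEK293T cells. Luminescence was read on a CCD plate imager after 16 hr exposure and 30 min ONE-Glo incubation.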
Potency is read from the fitted curve at half-maximal effect; tags tell the direction and shape of the fitted curve.

Compound | Potency | activity change, positive = activation
CCOc1ccccc1-n1nnnc1SCC(=O)NC(=O)Nc1ccc2c(c1)OCCO2 | inactive | –
Cc1cnc(C(=O)Nc2ccc(N3CCCCC3)cc2)cn1 | inconclusive: 2.59 µM [activator, full curve] | –
CC(C)(C)OC(=O)C[C@@H]1C/C=C\C[C@@H](CC(=O)N(CCO)Cc2ccccc2)C(=O)NC[C@H](c2ccccc2)OC1=O | inactive | –
CCCCOC(=O)c1sc2nc(C)cc(C)c2c1N | inconclusive: 20.6 µM [activator, single point] | –
Oc1[nH]c2ccccc2c1C=Nc1ccc2c(c1)OCO2 | inconclusive: 2.59 µM [activator, partial curve] | –
N#C/C(=C\c1c[nH]c2ccccc12)C(=O)NC1CC1 | inconclusive: 9.2 µM [activator, partial curve] | –
O=C(CSc1nc(-c2ccc(F)cc2)nc2c1Cc1ccccc1O2)Nc1ccc(C(=O)O)cc1 | inactive | –
O=C(Nc1ccc2oc(-c3cccnc3)nc2c1)c1ccc2c(c1)OCCO2 | inconclusive: 23.1 µM [activator, partial curve, poor fit] | –
Cc1cc(C)n(-c2nc(NCC(C)O)c3c4c(sc3n2)CCCC4)n1 (centres undefined) | inactive | –
COc1cccc(N2CC(O)=C(c3nc4ccccc4s3)C2=N)c1 | inconclusive: 23.1 µM [activator, partial curve, poor fit] | –
COc1ccc(C(=O)O/N=C(\N)c2ccccc2)cc1 | active: 1.83 µM | –
CCc1ccccc1NC1=NCC(=O)N1C1CCCC1 | inactive | –
Nc1nc2c([N+](=O)[O-])cccc2s1 | inconclusive: 20.6 µM [activator, partial curve, poor fit] | –
Cc1ccc(C(=O)O/N=C(\N)c2ccccc2)c(Cl)c1 | inconclusive: 0.259 µM [activator, partial curve] | –
CCOc1ccc(S(=O)(=O)c2cn(C)c3cc(OC)c(OC)cc3c2=O)cc1 | inactive | –
COc1ccc2[nH]cc(CCNC(=O)COc3cc(C)cc4oc(=O)cc(C)c34)c2c1 | inactive | –
CCOC(=O)CCC(NC(=O)CCCCCCCC(=O)NC(CCC(=O)OCC)C(=O)OCC)C(=O)OCC (centres undefined) | inactive | –
O=C(Nc1ncc(Cc2ccccc2)s1)c1cccs1 | inconclusive: 2 µM [activator, partial curve, poor fit] | –
CCc1ccc(NC(=O)CCCN2C(=O)C3CC=CCC3C2=O)cc1 (centres undefined) | inconclusive: 23.1 µM [activator, partial curve, poor fit] | –
Cc1ccc2nc(N3CCOCC3)c(C=O)cc2c1 | inconclusive: 23.1 µM [activator, partial curve, poor fit] | –
O=C(Nc1ccc(-c2noc(CCc3ccccc3)n2)cc1)c1ccco1 | inconclusive: 2.59 µM [activator, partial curve] | –
Cn1c(=O)n(C)c2cc(NS(=O)(=O)c3ccc(Cl)s3)ccc21 | inconclusive: 20.6 µM [activator, single point] | –
COc1ccccc1N1CCN(C(=O)c2ccc3[nH]c4c(c3c2)CC(C)CC4)CC1 (centres undefined) | inactive | –
COc1ccc(NCCc2ccccn2)cc1 | inconclusive: 18.3 µM [activator, partial curve] | –
N/C(=N\OC(=O)c1ccc([N+](=O)[O-])cc1Cl)c1ccccn1 | active: 0.326 µM | –

Compound | Potency | activity change, positive = activation
CC1=NN(C(N)=S)C(=O)C1N=Nc1c(C)cc(C)cc1C (centres undefined) | inconclusive: 32.6 µM [activator, partial curve, poor fit] | –
CC(C)(C)OC(=O)C[C@H]1C/C=C\C[C@H](CC(=O)N[C@H](CO)Cc2ccccc2)C(=O)N2CCC[C@@H]2COC1=O | inactive | –
C/C(=N\NC(=O)CC(C)C)c1ccc(Cl)c(Cl)c1 | inconclusive: 20.6 µM [activator, partial curve, poor fit] | –
O=C(COC(=O)c1ccc(O)cc1)Nc1ccc2c(c1)OCCO2 | inconclusive: 23.1 µM [activator, single point] | –
Cc1ccc(NC(=S)NC(=O)C2CCC2)cc1C | inconclusive: 6.51 µM [activator, partial curve] | –
Cc1ccc(S(=O)(=O)NC(C)(C)C)cc1C(=O)OCC(=O)N1CCCC1=O | inactive | –
Cc1ccc2cc3cc(C(=O)NC4CC4)oc3nc2c1 | inconclusive: 6.51 µM [activator, partial curve] | –
O=C(N/N=C(\c1ccccc1)c1ccccn1)c1cccc([N+](=O)[O-])c1 | inconclusive: 16.4 µM [activator, single point] | –
O=c1nc(Nc2cccc(Cl)c2)oc2cc(Cl)oc(=O)c12 | inactive | –
O=[N+]([O-])c1ccc(Sc2cccc3cccnc23)cc1 | inconclusive: 16.4 µM [activator, partial curve] | –
CCOCCCNC(=O)c1cn(C)c2ccc(S(=O)(=O)N3CCCCC3)cc2c1=O | inactive | –
Cc1ccc(CNS(=O)(=O)c2c(C)[nH]c(C)c2C(=O)N2CCCCC2)o1 | – | inactive: 1.02% [at 9.26 µM]
Cc1cc(/C=C2/SC(=S)N(c3ccc([N+](=O)[O-])cc3)C2=O)c(C)n1-c1cccnc1 | inactive | –
COc1ccc(-c2cc(C(=O)N3CCN(c4ccccc4)CC3)no2)cc1 | inconclusive: 2.59 µM [activator, partial curve, poor fit] | –
CC1(c2ccccn2)Nc2ccccc2-c2nc3ccccc3n21 (centres undefined) | inactive | –
COc1ccc(C(=O)n2c(SC)nc3cc4c(cc32)OCCO4)cc1 | inconclusive: 16.4 µM [activator, partial curve, poor fit] | –
Cc1ccc(/C=C/c2nnc(-c3cccs3)o2)cc1 | inconclusive: 1.46 µM [activator, full curve] | –
CCOC(=O)c1ccc(NCc2cccnc2)cc1 | inconclusive: 20.6 µM [activator, partial curve, poor fit] | –
CCOC(=O)N1N=C(c2ccc(OC)cc2)CC1(O)C(F)(F)F (centres undefined) | inconclusive: 2.31 µM [activator, partial curve] | –
NC(=O)c1c(NC(=O)c2cc3ccccc3o2)sc2c1CCC2 | active: 0.92 µM | –
Cc1ccc(-c2cnc3ccccc3n2)cc1C | inconclusive: 1.46 µM [activator, partial curve] | –
Cc1ccnc(NC(=O)Cc2ccc(-c3ccccc3)cc2)c1 | active: 2.31 µM | –
CC(C)Cc1nc2oc3c(N4CCN(CCO)CC4)ncnc3c2c2c1CCCC2 | inactive | –
CC(C)c1nnc(NC(=O)CCC(=O)Nc2ccccc2)s1 | inactive | –
COc1ccc(/C=N/NC(=O)c2ccoc2C)cc1O | inconclusive: 18.4 µM [activator, single point] | –

Compound | Potency | activity change, positive = activation
CCOc1ccc(NC(=O)c2cnsn2)cc1 | active: 1.46 µM | –
O=C(/C=C/c1ccc2c(c1)OCO2)Nc1nncs1 | inconclusive: 5.17 µM [activator, partial curve] | –
CCOC(=O)N1CCN(c2ccc(S(=O)(=O)N(Cc3ccccc3)Cc3ccccc3)cn2)CC1 | active: 11.6 µM | –
N#CCC(=O)Nc1ncc(Cc2ccccc2Cl)s1 | inactive | –
O=C(Nc1cccc(O)c1)c1ccccc1[N+](=O)[O-] | inactive | –
O=C(Cc1cccs1)N/N=C/C(Br)=C/c1ccccc1 | inconclusive: 18.4 µM [activator, partial curve, poor fit] | –
O=C(CSc1ccccn1)N1CCc2ccccc21 | inconclusive: 13 µM [activator, partial curve, poor fit] | –
CC(=O)O[C@]1(C(C)=O)CC[C@H]2[C@@H]3C[C@H](C)C4=CC(=O)CC[C@]4(C)[C@H]3CC[C@@]21C | inconclusive: 29.1 µM [activator, single point] | –
Cc1ccc(NC(=O)c2ccc3c(c2)OCO3)cc1Cl | inconclusive: 1.03 µM [activator, partial curve] | –
COc1cccc(NC(=O)C(=O)N2CCOCC2)c1 | inconclusive: 23.1 µM [activator, single point] | –
CCOC(=O)Nc1nc2ccccc2s1 | active: 3.66 µM | –
Cc1cccc(-c2nnc(SCc3ccccc3)o2)c1 | inconclusive: 20.6 µM [activator, partial curve] | –
O=C(Nc1ccc2c(c1)OCO2)N1CCN(Cc2ccco2)CC1 | inconclusive: 5.8 µM [activator, single point] | –
CCOC(=O)CNC(=O)c1ccccc1 | inactive | –
CCS(=O)(=O)NCc1csc(-c2ccccc2)n1 | inconclusive: 11.6 µM [activator, partial curve] | –
O=C(Cn1ccc(C(F)(F)F)n1)N/N=C/c1ccc2c(c1)OCO2 | inconclusive: 23.1 µM [activator, partial curve, poor fit] | –
O=C(NC1CC1)c1sc2cc(F)ccc2c1Cl | inconclusive: 23.1 µM [activator, partial curve, poor fit] | –
COc1ccc(C(=O)NCCn2ccc3ccccc32)cc1 | inconclusive: 2 µM [activator, full curve, poor fit] | –
Cc1cc(O)ccc1-c1cnc2ccccc2n1 | inconclusive: 11.6 µM [activator, single point] | –
CC(c1ccccc1)N1C(=O)NC(NC(=O)c2cccnc2)(C(F)(F)F)C1=O (centres undefined) | inactive | –
O=C(O)c1cc(N/N=C/c2ccc(OCc3ccccc3)cc2)ccc1Cl | inconclusive: 2.59 µM [activator, full curve] | –
CCN(C(=O)COC(=O)c1ccc(=O)n(Cc2ccccc2)n1)C1CCS(=O)(=O)C1 (centres undefined) | inactive | –
CC12C(=O)N(c3nccs3)C(=O)C1C1C=CC2C1 (centres undefined) | inactive | –
CCc1ccc(NC(=O)c2n[nH]c(=O)c3ccccc23)cc1 | inconclusive: 4.11 µM [activator, full curve] | –
